Results filed as inconclusive are left out. The source holds more than one record for some entries. This list holds those alone. There may be further records. Values given together are repeats in other runs, samples, wells, individuals or studies.
Test system: nude mice, A549 intrarenal xenograft, tumor weight change
Experiment: NCI In Vivo Anticancer Drug Screen. Data for tumor model A549 Human Adenocarcinoma of Lung with characteristics of Type II Alveolar Epithelial cells (intrarenal inoculation) in NU/NU BALB/C (nude) mice
Conditions: endpoint: mean tumor weight change; dose: 1.5 mg/kg/injection; schedule: Q04DX003 (ip); vehicle: suspension in saline; higher = larger tumour
Method: The antitumor activity of compounds was measured in mice bearing transplantable tumors. Survival or tumor size were measured and the results are expressed as the measurement made in the treated group (T) divided by the measurement made in the vehicle treated control group (C). The tumor model used in this assay is A549 Human Adenocarcinoma of Lung with characteristics of Type II Alveolar Epithelial cells (intrarenal inoculation) in NU/NU BALB/C (nude) mice

`CC1Oc2cc3c(-c4c(O)cc(O)c5c(O)c6c(cc45)OC(C)C(C)C6=O)c(O)cc(O)c3c(O)c2C(=O)C1C` (stereo unspecified) was tested. Which T/C did it give?
Its T/C is 71 % of control and 194 % of control.

Reference: PubChem BioAssay AID278 (DTP/NCI, 2004)
